According to PubChem BioAssay AID1508642 (National Center for Advancing Translational Sciences (NCATS), 2021):
In all, about 43,000 compounds went through this assay and about 200 (0.47%) were called active. Not shown: some 12% with an inconclusive outcome. The call rests on the fitted dose curve; in most records, active means well fitted cell-killing curve with a large enough effect; inconclusive means small, poorly fitted or top-dose-only effect, or effect the other way; inactive means flat fitted curve, though single readings scatter. Some of the results follow.

Test: Cell viability qHTS assay in S16 Pmp22-F2sN cells; further: nearly all actives have a fitted effect of over 65% in size
Conditions: S16 Pmp22-F2sN Schwann cells (luciferase reporters placed in the Pmp22 gene) viability, CellTiter-Glo, 24 h; series mostly up to 57.5 µM; activity change, negative = cytotoxicity: at the top concentration
Outline: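 CellTiter-Glo counter-screen, qHTS, 1536-well. Cells: S16(c9) Pmp22-F2sN, 500-1,000/well in DMEM + 10% FBS. Cpd 23 nL pin transfer, 24 h, 37C/5% CO2. Read: luminescence, CCD imager.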
On the % scale 0 is the no-effect control and ±100 the full control effect.

Row | Compound | activity change, negative = cytotoxicity
1 | Cc1ccc(N(CC(=O)N2CCN(c3cc(Cl)ccc3C)CC2)S(=O)(=O)c2c(C)noc2C)cc1 | inactive: -7.65%
2 | Clc1ccc(-c2nc3ccccn3c2Nc2ccc3c(c2)OCCO3)s1 | inactive: -14.5%
3 | CCc1ccc(N2CCn3c2nc2c3c(=O)n(CCc3ccccc3)c(=O)n2C)cc1 | inactive: 5.2%
4 | Cc1cccc(Cn2c(=O)n(-c3ccc(Cl)c(Cl)c3)c(=O)c3c(C)c(C)sc32)c1 | inactive: 16.3%
5 | Cc1ccc2nc(NC(=O)CSc3nccn3Cc3ccccc3)sc2c1 | inactive: 0.603%
6 | CCOCCc1nnc(NC(=O)C(=O)c2cc(C)n(-c3cccc(Cl)c3)c2C)s1 | inactive: 10.4%
7 | Cc1ccc(C)c(N2CCN(C(c3ccc(F)cc3)c3nnc(-c4ccccc4)o3)CC2)c1 (stereo not drawn) | inactive: 2.65%
8 | CCN(Cc1ccccc1)C(=O)Cn1c(=O)oc2cc(S(=O)(=O)N3CCCCCC3)ccc21 | inactive: 3.26%
9 | Cc1ccccc1CSc1cn(CC(=O)N2CCCC2)c2ccccc12 | inactive: -2.37%
10 | COc1ccc(NC(=O)c2sc3nc(C)c(C(=O)Nc4ccc(C)cc4C)c(-c4cccs4)c3c2N)cc1 | inactive: -7.42%
11 | CCOc1ccc(NC(=O)C(=O)NCCc2csc(-c3ccc(C)cc3)n2)cc1 | inactive: 1.53%
12 | Cc1noc2ncnc(NCc3ccccc3Cl)c12 | inactive: -24.7%
13 | COc1ccc(-n2c(=O)c3c(c4cc(OC)ccc4n3C)n(C)c2=O)cc1 | inactive: 1.09%
14 | CCOc1ccc(NC(=O)Cn2cc(C(=O)c3ccc(CC)cc3)c(=O)c3ccc(C)nc32)cc1 | inactive: 3.05%
15 | CC1=C(c2ccc(C)c(C)c2)S(=O)(=O)N=C1N1CCC(C(=O)NCc2ccc(Cl)cc2)CC1 | inactive: -2.41%
16 | CCN(CC)S(=O)(=O)c1ccc2c(c1)N(CC(=O)Nc1c(C)cc(C)cc1C)C(=O)C1CCCN21 (stereo not drawn) | inactive: 3.15%
17 | COc1ccc(NC(=O)CSc2nccn2Cc2ccco2)cc1OC | inactive: -7.65%
18 | O=C(COc1ccccc1F)Nc1ccc(Cl)c(-c2nc3ccccc3[nH]2)c1 | inactive: 6.89%
19 | Cc1ccc(-n2c(=O)c3cccnc3n2CC(=O)NCc2ccc(F)cc2)cc1C | inactive: 20.1%
20 | Cc1ccc(CNC(=O)CN2CCCN(Cc3ccc(F)cc3)S2(=O)=O)cc1 | inactive: 6.83%
21 | O=c1[nH]c2ccc(NCc3ccccc3F)cc2[nH]1 | inactive: -21.4%
22 | O=C(CCc1ccccc1)NCc1ccc2c(c1)CCN2C(=O)c1ccc(Cl)cc1 | inactive: -11.1%
23 | CCOC(=O)c1cc(NC(=O)c2ccc(OC)cc2)c(=O)n2c1oc1ccc(Cl)cc12 | inactive: 22.5%
24 | CCn1c(CNC(=O)C23CC4CC(CC(C4)C2)C3)nnc1SCC(=O)Nc1ccc(F)cc1 | inactive: -3.74%

Row | Compound | activity change, negative = cytotoxicity
25 | CC1Cc2ccccc2N1C(=O)CSc1nnc(-c2cccc(Cl)c2)o1 (stereo not drawn) | inactive: 1.4%
26 | CCc1cccc(NC(=O)CC2Oc3ccc(C)cc3NC2=O)c1 (stereo not drawn) | inactive: 9.26%
27 | Cc1ccc(NC(=O)CC2Sc3ccccc3NC2=O)c(Br)c1 (stereo not drawn) | inactive: 2.1%
28 | CCCCc1nc2ccccc2n1CC(=O)N(COCC)c1c(C)cccc1CC | inactive: -16.8%
29 | Cc1cc(C)cc(NC(=O)C2CCN(S(=O)(=O)c3ccc4c(c3)oc(=O)n4C)CC2)c1 | inactive: 5.17%
30 | CCOC(=O)c1ccc(NC(=O)CSc2nc3c([nH]c4ccccc43)c(=O)n2C)cc1 | inactive: -3.49%
31 | Cc1cn2c(=O)cc(COc3ccccc3NC(=O)c3ccc(Cl)cc3)nc2s1 | inactive: -1.35%
32 | Cc1ccccc1-c1noc(-c2cc(-c3ccc(F)cc3)n[nH]2)n1 | inactive: -22.8%
33 | Cc1ccc(NC(=O)C2CCC(CNS(=O)(=O)c3ccc4c(c3)CCCC(=O)N4)CC2)c(C)c1 (stereo not drawn) | inactive: -5.3%
34 | COc1cc(NC(=O)c2ccc(-n3cnc4cccnc43)cc2)cc(OC)c1 | inactive: 3.45%
35 | Cc1ccc(S(=O)(=O)N(CC(=O)Nc2ccc3c(c2)OCO3)c2ccc(C)c(Cl)c2)cc1 | inactive: 0.612%
36 | Cc1cc(C)c(NC(=O)Cn2nnc(-c3nc(-c4ccccc4)no3)c2N)c(C)c1 | inactive: 2.31%
37 | Cc1cc(C)c2c(n1)SCCN2C(=O)Nc1ccc(C(=O)Nc2ccc(C(C)C)cc2)cc1 | inactive: 15.5%
38 | CCN(CC)c1ccc2cc(-c3nc(-c4cc(OC)c(OC)c(OC)c4)no3)c(=O)oc2c1 | inactive: 2.4%
39 | COc1ccccc1NC(=O)C1CCN(c2cnccn2)CC1 | inactive: 2.42%
40 | CSc1ncc(C(=O)Nc2cc(Cl)ccc2C)c(-c2ccccc2)n1 | inactive: 12.2%
41 | COC(=O)c1ccccc1NC(=O)Cn1c(=O)n(CCCC(=O)NCc2ccccc2OC)c(=O)c2ccccc21 | inactive: 4.07%
42 | Cc1ccc(C)c(NC(=O)C(c2ccccc2)N2Cc3ccccc3C2=O)c1 (stereo not drawn) | inactive: -16.8%
43 | CCOc1ccc(-n2nc(CO)c(C(=O)NCc3cccc(OC)c3)n2)cc1 | inactive: -4.77%
44 | CC(=O)c1ccc(NC(=O)c2nc3nc(C)cc(C(F)F)n3n2)cc1 | inactive: -9.88%
45 | Cc1cc(C)cc(-n2ccn(CC(=O)Nc3ccccc3F)c(=O)c2=O)c1 | inactive: 7.62%
46 | O=C(CCC1N=C2c3ccccc3N=C(SCc3ccc(F)cc3)N2C1=O)NC1CCCCC1 (stereo not drawn) | inactive: 1.16%
47 | COc1ccc(-c2nn(-c3cccc([N+](=O)[O-])c3)c3c2cnc2cc4c(cc23)OCO4)cc1 | inactive: 1.91%
48 | CC(C)c1ccc(Nc2nc3c(S(=O)(=O)c4ccc(Br)cc4)nnn3c3ccsc23)cc1 | inactive: 25.3%

Row | Compound | activity change, negative = cytotoxicity
49 | CCCN(C(=O)c1cc2c(s1)-c1c(C)cccc1OC2)c1ccc(OCC)cc1 | inactive: 6.73%
50 | CCSc1nnnn1-c1cccc(C(=O)O)c1 | inactive: 3.52%
51 | CCOC(=O)c1cc(-c2ccc(C)cc2)n(CC(=O)NC2CCCCCC2)c1C | inactive: 10.5%
52 | Cc1cc2nc(-c3cccc(NC(=O)CSc4ccc(Cl)cc4)c3)oc2cc1C | inactive: -2.82%
53 | O=C(/C=C/c1cn(CC(O)CN2CCCCCC2)c2ccccc12)c1ccc(Br)cc1 (stereo not drawn) | inactive: -9.22%
54 | C=CCC(CC=C)(CNC(=O)C(=O)Nc1ccc(C(=O)OCC)cc1)c1ccccc1 | inactive: 18.9%
55 | COC(=O)c1ccccc1NC(=O)c1cc2c(-c3ccc(OC)c(OC)c3)nn(C)c2s1 | inactive: 7.41%
56 | Cc1ccc(NC(=O)C(Cc2ccccc2)n2cccc2)cc1C (stereo not drawn) | inactive: -15.7%
57 | Cc1ccc(-c2nc3ccccn3c2Nc2ccc3c(c2)OCO3)o1 | inactive: -21.4%
58 | Cc1ccc(NC(=O)Cn2cc(S(=O)(=O)c3ccccc3)c(=O)c3cc4c(cc32)OCO4)cc1 | inactive: -4.37%
59 | Cc1cccc(C(=O)Nc2ccc(OCc3cc(=O)n4c5c(sc4n3)CCCC5)cc2)c1 | inactive: 18%
60 | Cc1c(NC(=O)Nc2ccc(C#N)cc2)c(=O)n(-c2ccccc2)n1C | inactive: 0.789%
61 | COc1ccc(C2c3[nH]c4ccc(OC)cc4c3CCN2C(=O)Nc2ccccc2)cc1 (stereo not drawn) | inactive: -15%
62 | CC(C)(C)c1ccc(C(=O)NC(Cc2c[nH]c3ccccc23)C(=O)OCC(=O)c2ccc(Cl)cc2)cc1 (stereo not drawn) | inactive: 0.904%
63 | Cc1ccc(CNC(=O)CSc2nc3n[nH]c(C)c3c(=N)n2-c2cccc(C)c2)cc1 | inactive: 24.2%
64 | CCOc1ccc(NC(=O)Cn2cc(S(=O)(=O)N3CCN(c4ccccc4F)CC3)c3ccccc3c2=O)cc1 | inactive: 1.31%
65 | O=C(NCCc1csc2nc(-c3cccc(F)c3)nn12)c1ccc(Br)o1 | inactive: 5.55%
66 | COc1ccc(N(CC(=O)N2CCN(c3ccc(F)cc3)CC2)S(=O)(=O)c2c(C)n[nH]c2C)cc1 | inactive: 1.37%
67 | COc1ccc(-c2noc(-c3ccc(N4CCC(C)CC4)c([N+](=O)[O-])c3)n2)cc1OC | inactive: 3.92%
68 | CCOC(=O)c1scc(-c2ccccc2)c1S(=O)(=O)N1CCN(c2ccccc2OC)CC1 | inactive: 9.29%
69 | COc1ccc(NC(=O)c2oc3ccc(S(=O)(=O)N(C)C4CCCCC4)cc3c2C)cc1 | inactive: -5.18%
70 | Cc1ccc(CNC(=O)c2cccc(-n3cnc4cccnc43)c2)cc1 | inactive: -12.3%
71 | CCc1ccc(NC(=O)CCNS(=O)(=O)c2ccc3c(c2)CCCC(=O)N3)cc1 | inactive: 5.85%
72 | COc1cccc(C(=O)Nc2c3c(nn2-c2ccc(Cl)cc2)CS(=O)(=O)C3)c1 | inactive: -3.22%

Row | Compound | activity change, negative = cytotoxicity
73 | COC(=O)c1ccc(NC(=O)c2cccc3c2C(=O)N(C2CCCCC2)C3)cc1 | inactive: 6.89%
74 | COC(=O)CC1Oc2ccc(C)cc2-n2cc(-c3ccc(F)cc3)nc21 (stereo not drawn) | inactive: 6.99%
75 | O=C(CCC1N=C2c3ccccc3N=C(SCc3ccccc3Cl)N2C1=O)N1CCN(c2ccccc2)CC1 (stereo not drawn) | inactive: 2.69%
76 | COc1ccc(Cn2ccc3nc(C)c(C(=O)NCc4ccc(C)cc4)cc3c2=O)cc1 | inactive: -7.42%
77 | CC1(C)CC(=O)c2cc(-c3nc(-c4ccc(Cl)cc4)cs3)c(=O)n(-c3ccc(F)cc3)c2C1 | inactive: -22%
78 | COc1ccc(-c2oc3ncn4nc(-c5ccccc5Cl)nc4c3c2-c2ccc(OC)cc2)cc1 | inactive: 2.23%
79 | Cc1cccc(OCCSc2nc3ccc(NC(=O)COc4ccccc4F)cc3s2)c1 | inactive: 0.0159%
80 | COc1ccc(N2CCN(C(=O)c3cc(NS(=O)(=O)c4ccc(F)cc4)ccn3)CC2)cc1 | inactive: 17.7%
81 | CCOc1ccc(CCNC(=O)CCN2N=C(c3ccc(OC)cc3)CCC2=O)cc1OCC | inactive: 4.6%
82 | Cc1ccc(C)c(NC(=O)CSc2ncc3c(n2)-c2cc(Cl)ccc2N(Cc2ccccc2F)S3(=O)=O)c1 | inactive: -18.8%
83 | Cc1ccc(C)c(N2CCN(C(=O)CCn3c(=O)[nH]c4ccccc4c3=O)CC2)c1 | inactive: -0.401%
84 | O=C(CSc1nc(=O)[nH]c2c1CCC2)NCc1ccc(Cl)cc1 | inactive: 2.54%
85 | Cc1cccc(C)c1OCCn1c(C2CC(=O)N(Cc3ccc(F)cc3)C2)nc2ccccc21 (stereo not drawn) | inactive: -19.3%
86 | O=C(CCS(=O)(=O)c1cccc2nonc12)Nc1cccc(F)c1 | inactive: 0.569%
87 | CC(C)NC(=O)CSc1nc2ccccc2c(=O)n1Cc1ccc(C(=O)NC(C)C)cc1 | inactive: -2.3%
88 | CC(CNC(=O)c1ccc2c(c1)nc1n2CCOC1)c1ccccc1 (stereo not drawn) | inactive: 15.9%
89 | COc1ccc(CN(Cc2ccco2)c2cnc(S(C)(=O)=O)nc2C(=O)Nc2ccc(C)c(C)c2)cc1 | inactive: 0.234%
90 | COC(=O)c1ccc(C(=O)Nc2ccc(-c3nc4cc(NC(=O)c5ccc(C(=O)OC)cc5)ccc4o3)cc2)cc1 | inactive: -4.31%
91 | Cc1cccc(CSc2nc3cccnc3n2Cc2ccc(C(=O)NCc3ccco3)cc2)c1 | inactive: -24.3%
92 | CCSc1ncc(Cl)c(C(=O)Nc2ccc(S(=O)(=O)Nc3nccc(C)n3)cc2)n1 | inactive: -14.2%
93 | Cc1ccc(Cl)cc1NC(=O)Cn1cc2c(n1)CCCCC2 | inactive: 18.3%
